Experimental findings from the antibiotic and cytotoxicity screens of Wong et al. (2023) are described below.

Some of the results follow.

In the experiment the test system is S. aureus RN4220. The experiment in a line: growth inhibition call (relative growth <= 0.2). To be noted: 50 µM.
Regarding `Cc1ccc(S(=O)(=O)N(C)C[C@H]2OCCCC[C@H](C)Oc3ccc(NC(=O)C4CCCCC4)cc3C(=O)N([C@H](C)CO)C[C@H]2C)cc1`, the growth inhibition call was “inactive”.

With `CC12C=CC(=O)C=C1CCC1C2C(O)CC2(C)C1CCC2(O)C(=O)COC(=O)CCC(=O)O` (stereo not given), the growth inhibition call was “inactive”.

With `COc1ccc(NC(=O)Nc2cccc3c2O[C@H](CN(C)S(C)(=O)=O)[C@@H](C)CN([C@H](C)CO)C3=O)cc1`, the growth inhibition call was “inactive”.

Take `C[C@@H]1CN([C@H](C)CO)C(=O)c2ccccc2-c2ccccc2CO[C@@H]1CN(C)C(=O)Nc1ccccc1C(F)(F)F`: the growth inhibition call is “inactive”.

Take `COC(=O)CC1C2(C)CC34OC5(C)OC6(C7C(=C(O)C(C)C)C(=O)OC(c8ccoc8)C7(C)C(OC(C)=O)C(OC(C)=O)C6(O5)C13C)C(OC(C)=O)C4(O)C2OC(=O)C(C)C` (stereo not given): the growth inhibition call was “inactive”.

`Cc1cccc(S(=O)(=O)N2C[C@H](O)COC[C@@H]3O[C@@H](CC(=O)NCCCN4CCOCC4)CC[C@H]32)c1`: the growth inhibition call was “inactive”.

Regarding `COCC(=O)N1C[C@H](C)[C@@H](OC)CN(C)C(=O)c2cc(NC(=O)Nc3ccccc3)ccc2OC[C@H]1C`, the growth inhibition call is “inactive”.

Consider `Cn1c(=O)[nH]c2nnc(-c3ccccn3)nc2c1=O`, for which the growth inhibition call was “inactive”.

`C=CC[C@@H](CC(=O)N[C@H](CO)Cc1ccccc1)C(=O)N[C@H](COC(=O)[C@@H](CC=C)Cc1ccc(F)cc1)Cc1c[nH]c2ccccc12`: the growth inhibition call was “inactive”.

Take `C[C@@H]1CN([C@@H](C)CO)C(=O)c2cccc(NC(=O)Nc3ccc4c(c3)OCO4)c2O[C@H]1CN(C)S(=O)(=O)c1cn(C)cn1`: the growth inhibition call is “inactive”.

Consider `CN(C)CC(=O)N1[C@H](CO)[C@@H](c2ccc(C3=CCCC3)cc2)C12CN(S(=O)(=O)Cc1ccccc1)C2`, for which the growth inhibition call was “inactive”.

In the case of `Cc1nnc(N2CCC[C@]3(CN(C(=O)CO)CCO3)C2)o1`, the growth inhibition call was “inactive”.

As to `COc1cccc(S(=O)(=O)N2C[C@H](O)COC[C@@H]3O[C@H](CC(=O)NCCCN4CCOCC4)CC[C@H]32)c1`, the growth inhibition call was “inactive”.

Turning to `C[C@H]1CN([C@@H](C)CO)C(=O)c2ccccc2-c2ccccc2CO[C@@H]1CN(C)C(=O)Nc1ccc(F)cc1`, the growth inhibition call was “inactive”.

As for `C[C@@H]1CCCCO[C@H](CN(C)Cc2ccncc2)[C@@H](C)CN([C@H](C)CO)C(=O)c2cc(NC(=O)Nc3ccc4c(c3)OCO4)ccc2O1`, the growth inhibition call was “inactive”.

As for `C[C@@H]1CN([C@@H](C)CO)C(=O)c2cc(NS(=O)(=O)c3ccccc3)ccc2O[C@@H](C)CCCCO[C@@H]1CN(C)S(=O)(=O)c1ccc(Cl)cc1`, the growth inhibition call was “inactive”.

In the case of `CO[C@@H]1CN(C)C(=O)c2cc(NC(=O)NC3CCCCC3)ccc2OC[C@H](C)N(CCc2ccccc2)C[C@@H]1C`, the growth inhibition call was “inactive”.

As to `CO[C@@H](CN(C)S(=O)(=O)c1cn(C)cn1)[C@@H](C)CN(C(=O)Nc1ccc(C(F)(F)F)cc1)[C@@H](C)CO`, the growth inhibition call was “active”.

On to `C[C@@H]1CN([C@@H](C)CO)C(=O)c2c(c3ccccc3n2C)-c2ccccc2CO[C@H]1CN(C)Cc1ccc(Oc2ccccc2)cc1`, for which the growth inhibition call is “inactive”.

Take `C[C@@H]1CN([C@@H](C)CO)C(=O)Cc2cc(NC(=O)CCCCCC(=O)Nc3ccccc3N)ccc2O[C@@H]1CN(C)Cc1ccccc1`: the growth inhibition call is “inactive”.

For the molecule `C[C@H](CO)N1C[C@H](C)[C@@H](CN(C)Cc2ccc3c(c2)OCO3)OCCCC[C@H](C)Oc2ccc(NC(=O)Nc3cccc4ccccc34)cc2C1=O`, the growth inhibition call is “inactive”.

Regarding `C[C@@H]1CCCCO[C@H](CN(C)C(=O)Nc2cccc3ccccc23)[C@H](C)CN([C@@H](C)CO)C(=O)c2cc(NC(=O)c3ccccc3)ccc2O1`, the growth inhibition call was “inactive”.

For `C[C@@H]1CN([C@@H](C)CO)S(=O)(=O)c2ccc(-c3cccc(C(=O)N(C)C)c3)cc2O[C@@H]1CN(C)C(=O)Cc1ccccn1`, the growth inhibition call was “inactive”.

Take `COc1ccc(C(N)=O)cc1`: the growth inhibition call was “inactive”.

Turning to `C=C(C(=O)O)[C@@H](CCCCCCOC(=O)C(=O)OCCCCCC[C@@H](C(=C)C(=O)O)C(=O)O)C(=O)O`, the growth inhibition call is “inactive”.

On to `C[C@H](CO)N1C[C@H](C)[C@H](CN(C)C(=O)Nc2cccc3ccccc23)Oc2c(NC(=O)c3nc4ccccc4s3)cccc2C1=O`, for which the growth inhibition call is “inactive”.

As to `CCC(=O)N[C@@H]1CC[C@@H](CC(=O)OC)O[C@@H]1CO`, the growth inhibition call is “inactive”.

For the molecule `CNC[C@H]1OCCCC[C@@H](C)Oc2ccc(NS(=O)(=O)c3cn(C)cn3)cc2C(=O)N([C@@H](C)CO)C[C@H]1C`, the growth inhibition call was “inactive”.

On to `C[C@@H]1O[C@@H](O)[C@H](O)[C@H](O)[C@H]1O`, for which the growth inhibition call is “inactive”.

With `C[C@@H]1CCCCO[C@H](CN(C)Cc2ccc3c(c2)OCO3)[C@H](C)CN([C@H](C)CO)C(=O)c2cc(NC(=O)c3ccccc3)ccc2O1`, the growth inhibition call was “inactive”.
